The supplement of paper PMC3724861
This is one part of the list.

System: T1, Caupolican (Caup) homeodomain DNA-binding domain
T1 sequence: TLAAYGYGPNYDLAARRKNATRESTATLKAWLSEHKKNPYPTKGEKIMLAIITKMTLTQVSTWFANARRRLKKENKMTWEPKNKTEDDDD
Assay: PBM E-score (8-mer, recovered from the published 9-mer minima) (E-score (dimensionless, -0.5 to 0.5)); Drosophila protein; higher = stronger relative binding preference, active = 0.31 or more
How it was run: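 Caup's homeodomain DNA-binding domain (residues 214-303) was made by in vitro transcription and translation and applied at 100 nM to custom-designed protein binding microarrays. Each value is an enrichment score that gives relative binding preference for a short DNA word, with higher meaning stronger. The 8-mer values were recovered from published 9-mer scores, each of which was the minimum of its two constituent 8-mer scores. A cutoff of 0.31 marks candidate sites.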

Sequence	PBM E-score
ACTAAAGT	inactive: 0.012
AGGAAAGC	inactive: -0.118
CGGATGCA	inactive: -0.111
GAATTTGC	inactive: 0.0319
GGTGAGAC	inactive: -0.065
AGTCTTCC	inactive: -0.082
CCCCGTCA	inactive: -0.234
ATTCCAGC	inactive: -0.0544
ACCCCTAG	inactive: -0.125
ACGTATAA	inactive: 0.0902
ATGTTCCC	inactive: 0.282
AACTGCAA	inactive: -0.0126
CTCTGACA	inactive: 0.181
AATACCGT	inactive: 0.05
GCCGTGCC	inactive: -0.209
TCAGTACA	active: 0.313
CATAAAGA	inactive: 0.11
CTACGAAA	inactive: -0.0135
AGCACCAC	inactive: -0.0959
CCCGGACC	inactive: -0.198
CCGCGGAA	inactive: -0.189

Sequence	PBM E-score
CACCGTGC	inactive: -0.00842
GAATCGGA	inactive: -0.0551
CCCGACCG	inactive: -0.259
CTAGTCCA	inactive: 0.0476
CGGTCTCC	inactive: -0.28
ACGATACG	inactive: 0.0862
CGAAGGGA	inactive: -0.0996
GGCAACGA	inactive: 0.04
CAGACACC	inactive: 0.0639
CAACCCCA	inactive: -0.102
CAAAGTGA	inactive: -0.0286
AGTTTGAT	inactive: 0.0981
ACACGCAA	inactive: 0.283
GCAACCCA	inactive: -0.00131
GCCCCGGA	inactive: -0.272
GCTGCAGA	inactive: -0.0221
GACACTTA	inactive: 0.0943
ATGTCAAA	active: 0.359
AAACACTT	inactive: 0.153
AACGCGAG	inactive: -0.0453
TAGGATCA	inactive: 0.0338

Sequence	PBM E-score
AACTGCAG	inactive: -0.0155
GTTATTAA	inactive: 0.164
AGTGATCA	inactive: 0.157
AGACGTAT	inactive: 0.0977
CCAAACCA	inactive: -0.047
GGCGCACC	inactive: -0.318
AGAACTCA	inactive: 0.0135
ACCCGTAC	inactive: 0.0668
ATAAAGGC	inactive: -0.111
AATTAGAA	inactive: -0.00471
ACATGTCA	active: 0.461
AGGCGGGC	inactive: -0.272
ACTGACCC	inactive: -0.14
AGTAGTGG	inactive: -0.00423
CGGGTCTA	≥ -0.0577
CAAATACC	inactive: 0.0217
CCGCTGCC	inactive: -0.169
ACGACGCC	inactive: -0.108
ACTACGTG	inactive: 0.0316
